“And” between values parts separate entries of the source, which are not always exact repeats. Identical values can stand only once. Inconclusive results, whose numbers are uncertain, are shown with a selection of clear calls. Where the call is inconclusive, the potency comes from a doubtful curve fit. Some compounds were tested as several samples or in several runs, with calls that do not always agree. The source made the active and inactive calls. The call rests on the fitted dose curve; in most records, active means well fitted cell-killing curve with a large enough effect in the repeat runs; inconclusive means weak or mixed curves; inactive means flat fitted curve, though single readings scatter.
Test: qHTS RealTime-Glo MT Cell Viability Assay in HepG2 cells - 32 hour (AID 1224877); further: nearly all actives have a fitted effect of over 55% in size
Conditions: RealTime-Glo luminescence; series mostly up to 76.8 µM; activity change, negative = cytotoxic: at the top concentration
Excerpt: U.S. Tox21 Program National Center for Advancing Translational Sciences [NCATS] NIH Chemical Genomics Center [NCGC] U.S. Environmental Protection Agency [EPA] National Institutes of Environmental Health Sciences [NIEHS] National Toxicology Program [NTP] U.S. Food and Drug Administration [FDA] Tox21 Assay Overview: Measure of cell viability is critical in the cell-base assay. Analysis of cell viability is necessary for the characterization of cell responses to cytotoxic drugs and environmental stress. A RealTime-Glo MT Cell Viability Assay to monitor cell viability in real time of continues cell culture during 40 hours of compound treatment was used to screen Tox21 10K library compounds in HepG2 cells. The RealTime-Glo MT Cell Viability Assay is a nonlytic, homogeneous, bioluminescent method to measure cell viability in real time using a simple, plate-based method. The assay involves adding NanoLuc luciferase and a cell-permeant prosubstrate to cells in culture. Viable cells reduce the proprietary prosubstrate to generate a substrate for NanoLuc luciferase. This substrate diffuses from cells into the surrounding culture medium, where it is rapidly used by the NanoLuc Enzyme to produce a luminescent signal. The signal correlates with the number of viable cells, making the assay well suited for cytotoxicity studies.
Tox21 Assay Protocol Summary: The mixture of HepG2 cell suspension and reagents were dispensed at 600cells/6 ul/well in 1536-well tissue culture treated black solid bottom plates using a Multidrop dispenser. After the assay plates were incubated at a 37 C/5% CO2 incubator for 5 hours, 23 nL of compounds dissolved in DMSO, positive and negative controls was transferred to the assay plate by a pintool work station. The plates were incubated at 37 C for 40 hours. The luminescence intensity were measured at 0h, 8h, 16h, 24h, 32h and 40h time points using ViewLux plate reader during compound treatment.
On the % scale 0 is the no-effect control and ±100 the full control effect; potency means the concentration at half of the fitted maximal effect; tags describe the fitted curve by direction and shape.

SMILES	Potency	activity change, negative = cytotoxic
C/C=C/C(=O)Oc1c(CCCCCC(C)C)cc([N+](=O)[O-])cc1[N+](=O)[O-]	active: 38.9 µM	–
CCc1cc(SCc2sc(-c3ccc(C(F)(F)F)cc3)nc2CN2CCN(c3ccc(OC)cc3)CC2)ccc1OCC(=O)O	inconclusive: 54.9 µM [cytotoxic, partial curve, poor fit]	–
Nc1cc(Cl)c(-c2cc(Cl)c(N)cc2Cl)cc1Cl	inconclusive: 49 µM [cytotoxic, partial curve]	–
CC(C)(C)c1ccc(O)c(C(C)(C)C)c1	inconclusive: 54.7 µM [cytotoxic, single point] and inconclusive: 43.6 µM [cytotoxic, partial curve]	–
O=Nc1ccc(Nc2ccccc2)cc1	inconclusive: 62 µM [cytotoxic] and inconclusive: 54.9 µM [cytotoxic, single point]	–
O=C(Nc1ccccc1)c1cc(Cl)ccc1O	inconclusive: 38.9 µM [cytotoxic, partial curve]	–
O=C(Oc1cccc2cccnc12)c1ccccc1	inconclusive: 5.35 µM [cytotoxic, partial curve, poor fit]	–
O=C(Nc1cccc(C(F)(F)F)c1)c1cc(Br)cc(Br)c1O	inconclusive: 21.9 µM [cytotoxic, partial curve]	–
CC(C)(C)c1cc(/C=C2\SC(=N)NC2=O)cc(C(C)(C)C)c1O	inconclusive: 49 µM [cytotoxic, partial curve, poor fit]	–
CCCCCCCCCCCCCCCCCC[N+](C)(C)C	inconclusive: 55.1 µM [cytotoxic, single point]	–
O=C(OC[C@H]1O[C@@H](OC(=O)c2cc(O)c(O)c(OC(=O)c3cc(O)c(O)c(O)c3)c2)[C@H](OC(=O)c2cc(O)c(O)c(OC(=O)c3cc(O)c(O)c(O)c3)c2)[C@@H](OC(=O)c2cc(O)c(O)c(OC(=O)c3cc(O)c(O)c(O)c3)c2)[C@@H]1OC(=O)c1cc(O)c(O)c(OC(=O)c2cc(O)c(O)c(O)c2)c1)c1cc(O)c(O)c(OC(=O)c2cc(O)c(O)c(O)c2)c1	inconclusive: 11.8 µM [cytotoxic, partial curve]	–
CC(C)c1ccc(S(=O)(=O)O)cc1	inactive	–
O=C(Nc1ccc([N+](=O)[O-])cc1Cl)c1cc(Cl)ccc1O	inconclusive: 2.75 µM [cytotoxic, full curve] and inconclusive: 1.04 µM [cytotoxic, full curve]	–
Clc1ccc(C(Cn2ccnc2)OCc2ccsc2Cl)c(Cl)c1 (stereo not given)	inconclusive: 23.9 µM [cytotoxic, single point]	–
CC[C@H](c1ccc(O)cc1)[C@@H](CC)c1ccc(O)cc1	inconclusive: 54.9 µM [cytotoxic, single point]	–
CCCCCCCCCCCCCCCCCCNC(=O)OC1CCN(C(=O)OC[C@H](COC(=O)N(Cc2cccc[n+]2CC)C(=O)c2ccccc2OC)OC)CC1	inconclusive: 26.8 µM [cytotoxic, single point]	–
Cc1cc2c(C(C)C)c(O)c(O)c(C=O)c2c(O)c1-c1c(C)cc2c(C(C)C)c(O)c(O)c(C=O)c2c1O	active: 21.3 µM	–
CCCCCCCCCCCCCC[P+](CCCC)(CCCC)CCCC (tested in a mixture with another compound)	active: 19.6 µM	–
Oc1ccc(Cl)cc1Cc1cc(Cl)ccc1O	inconclusive: 43.6 µM [cytotoxic, partial curve] and inconclusive: 13.4 µM [cytotoxic, partial curve]	–
CN(C)C(=S)SC(=S)N(C)C	inconclusive: 14.2 µM [cytotoxic, partial curve] and active: 1.55 µM and active: 3.38 µM	–

SMILES	Potency	activity change, negative = cytotoxic
C=C1C(CCl)(CCl)C2(Cl)C(Cl)C(Cl)C1(Cl)C2(Cl)Cl (stereo not given)	inconclusive: 60.9 µM [cytotoxic, partial curve, poor fit]	–
Cc1c(C)n(Cc2ccccc2)c2ccc(C(=O)OCCN(C)C)cc12	active: 23.9 µM	–
CC(C)(C)c1ccc(O)c(O)c1	inconclusive: 56.8 µM [cytotoxic, single point] and inconclusive: 34.7 µM [cytotoxic, partial curve]	–
O=C(O[C@@H]1Cc2c(O)cc(O)cc2O[C@@H]1c1cc(O)c(O)c(O)c1)c1cc(O)c(O)c(O)c1	inconclusive: 49.1 µM [cytotoxic, partial curve] and inconclusive: 42.1 µM [cytotoxic, partial curve]	–
CCCCCCCCCCCCCCNCCO	active: 10.7 µM	–
N#CSCSc1nc2ccccc2s1	active: 30.9 µM	–
CC[C@H](C)C(=O)O[C@H]1C[C@@H](C)C=C2C=C[C@H](C)[C@H](CC[C@@H]3C[C@@H](O)CC(=O)O3)[C@H]21	inconclusive: 49.6 µM [cytotoxic, partial curve] and inconclusive: 21.3 µM [cytotoxic, partial curve]	–
CS(=O)(=O)CCNCc1ccc(-c2ccc3ncnc(Nc4ccc(OCc5cccc(F)c5)c(Cl)c4)c3c2)o1	inconclusive: 21.3 µM [cytotoxic, partial curve]	–
C=CC(=O)OCCOCCOCCOCCOC(=O)C=C	inconclusive: 55.2 µM [cytotoxic, single point]	–
CC(C)(C)CC(C)(C)c1ccc(O)c(Cc2ccc(Cl)cc2Cl)c1	inconclusive: 23.9 µM [cytotoxic, single point]	–
NC1(c2ccc(-c3nc4ccn5c(=O)[nH]nc5c4cc3-c3ccccc3)cc2)CCC1	inconclusive: 26.8 µM [cytotoxic, single point]	–
CCOC(=O)N1CCC(=C2c3ccc(Cl)cc3CCc3cccnc32)CC1	inconclusive: 54.9 µM [cytotoxic, single point]	–
BrC1CCC(Br)C(Br)CCC(Br)C(Br)CCC1Br (stereo not given)	inconclusive: 54.7 µM [cytotoxic, single point] and inconclusive: 46.5 µM [cytotoxic, partial curve, poor fit]	–
O=C1OC2(c3ccccc31)c1cc(Br)c(O)c(Br)c1Oc1c2cc(Br)c(O)c1Br	inconclusive: 24.9 µM [cytotoxic, partial curve] and inconclusive: 40 µM [cytotoxic, partial curve]	–
CC(C)(C)c1ccc(C(=O)CCCN2CCC(OC(c3ccccc3)c3ccccc3)CC2)cc1	active: 19 µM	–
CCCCCCCCNC(C)C(O)c1ccc(SC(C)C)cc1 (stereo not given)	active: 13.4 µM	–
Cc1ccc(-n2[nH]c(C)c(N=Nc3cccc(-c4cccc(C(=O)O)c4)c3O)c2=O)cc1C	inconclusive: 21.3 µM [cytotoxic, partial curve, poor fit]	–
CC1=C(/C=C/C(C)=C/C=C/C(C)=C/C(=O)Nc2ccc(O)cc2)C(C)(C)CCC1	active: 26.8 µM	–
COC(=O)C1=C(C)NC(C)=C(C(=O)OCC(C)C)C1c1ccccc1[N+](=O)[O-] (stereo not given)	active: 49 µM and inconclusive: 23.9 µM [cytotoxic, partial curve, poor fit]	–
Oc1c(Cl)cc(Cl)c2cccnc12	–	inactive: -13.1% [at 35.3 µM]

— PubChem BioAssay (Tox21)
